Measurements as given in PubChem BioAssay (NCATS).
The shares of active, inactive and inconclusive entries below differ from those in the screen. For some of these results: A potency beside an inconclusive call is a rough fit, not a confirmed value. Activity calls are given as the source filed them. Unless noted, calls come from the whole dose curve; as a rule, active = well fitted curve in the direction sought with a large enough effect; inconclusive = small, poorly fitted or top-dose-only effect, or another doubt; inactive = no such curve, though single readings can be large; an effect the other way counts as inactive or inconclusive.

How the values were obtained:
[1] = P-glycoprotein substrates identified in KB-8-5-11 adenocarcinoma cell line, qHTS therapeutic library screen (AID 1346987); conditions: activity change, negative = cytotoxicity: at 44.5 µM (top of the series); note: nearly all actives have a fitted effect of over 65% in size; for activity change, negative = cytotoxicity: % is set by controls: 0 for no effect and ±100 for the full control effect
How it was run: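 Luminescence from CellTiter-Glo, read 5 min after addition, quantified survival of KB-8-5-11 (P-gp-overexpressing) cells exposed to compounds for 72 h. AC50 was derived from concentration-response curves.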

Furin (Homo sapiens) = Furin (Homo sapiens) (UniProt P09958); experiment: Furin counterscreen qHTS for Zika virus inhibitors (AID 1347149); note: potency is the fitted concentration of half-maximal effect; nearly all actives have a fitted effect of over 70% in size
How it was run: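 Counterscreen measures cleavage of 2 microM BOC-RVRR-AMC, below its ~15 microM Km, by 5 nM full-length human furin at pH 7.0 after a 15-min compound preincubation. Inhibition derives from the 15-min fluorescence increase at 37C.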

[2] = ZIKV-mCherry secondary qHTS for Zika virus inhibitors (AID 1347158); note: potency is the fitted concentration of half-maximal effect
How it was run: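 Compounds were tested in Vero monkey kidney cells infected with recombinant mCherry-expressing Zika virus at MOI 1 for 48-72 h at 37 °C. Fixed cells were nuclear-stained and imaged, and infection rate was taken as the fraction of mCherry-positive cells.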

[3] = system: Zika virus NS2B-NS3 protease (unlinked complex); experiment: Primary screen GU Rhodamine qHTS for Zika virus inhibitors: Unlinked NS2B-NS3 protease assay (AID 1347159); conditions: Recombinant ZIKV NS2B-NS3 protease, Rhodamine110 substrate fluorescence; activity change, negative = inhibition: at 107 µM (top of the series); note: potency is the fitted concentration of half-maximal effect; nearly all actives have a fitted effect of over 60% in size
How it was run: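 Enzyme 25 nM in Tris-HCl pH 8.0 + 0.01% Tween 20; compounds up to 114 microM, 15 min RT dark; + Rhod110 substrate 1.5 microM; read t0 and 15 min; delta fluorescence → % inhibition → 4-parameter Hill fit.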

[4] = system: Zika virus NS2B-NS3 protease (linked construct); experiment: Primary screen NINDS Rhodamine qHTS for Zika virus inhibitors (AID 1347160); note: potency is the fitted concentration of half-maximal effect; nearly all actives have a fitted effect of over 55% in size
How it was run: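 Enzyme (25 nM, linked NS2B-NS3) was preincubated 15 min with compound in 10 mM Tris-HCl pH 8.0, 0.01% Tween 20. Rhodamine110 substrate (1.5 microM) was then added and fluorescence read at start and after 15 min.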

[5] = Tertiary RLuc qRT-PCR qHTS assay for Zika virus inhibitors (AID 1347169); note: potency is the fitted concentration of half-maximal effect; nearly all actives have a fitted effect of over 55% in size
How it was run: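 Vero cells (1,000 per well) plated overnight at 37 degrees C, treated with compound in DMSO, then infected with recombinant ZIKV-RLuc (Cambodian) at MOI 1-2 for 48-72 hrs. Live-cell Renilla luciferase substrate added; luminescence read after 1-1.5 hrs.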

[6] = target: Calcium and integrin-binding protein 1 (Homo sapiens) (UniProt Q99828); experiment: Primary qHTS for Identification of Calcium Integrin Binding Protein 1 (CIB1) Competitor (AID 1508620); note: potency is the fitted concentration of half-maximal effect
How it was run: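 Fluorescence polarization competition: GST-tagged CIB1 (1 uM final) preincubated with compound 15 min at room temperature, then FITC-labelled alphaIIb peptide (100 nM final) added. After 15 min at room temperature, polarization read at Ex 480/Em 540.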

[7] = target: Cytochrome P450 2D6 (Homo sapiens) (UniProt P10635); experiment: Cytochrome P450 family 2 subfamily D member 6 (CYP2D6) small molecule antagonists: luciferase biochemical (cell-free) qHTS assay (AID 1645840; active = well fitted curve in the direction sought with a large enough effect in the repeat runs; inconclusive = weak or mixed curves; inactive = no such curve, though single readings can be large; an effect the other way counts as inactive or inconclusive; note: nearly all actives have a fitted effect of over 55% in size; note: potency is the fitted concentration of half-maximal effect)
How it was run: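 P450-Glo CYP2D6 system: proluciferin substrate converted by enzyme to luciferin, read by luminescence proportional to activity. Enzyme-substrate mix with compound 10 min at room temperature, then NADPH regeneration 1 h before detection reagent.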

[8] = target: Cytochrome P450 2C9 (Homo sapiens) (UniProt P11712); experiment: Cytochrome P450 family 2 subfamily C member 9 (CYP2C9) small molecule antagonists: luciferase biochemical (cell-free) qHTS assay (AID 1645842; active = well fitted curve in the direction sought with a large enough effect in the repeat runs; inconclusive = weak or mixed curves; inactive = no such curve, though single readings can be large; an effect the other way counts as inactive or inconclusive; note: potency is the fitted concentration of half-maximal effect; nearly all actives have a fitted effect of over 55% in size)
How it was run: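 P450-Glo CYP2C9 system: proluciferin substrate with enzyme in mix containing 0.4% BSA, 10 min at room temperature, then NADPH regeneration solution added and incubated 1 h at 37C. Detection reagent stopped reaction; luminescence read after 20 min as RLU.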

[9] = Primary qHTS for inhibitors of nuclear receptor binding SET domain protein 2 (NSD2) in an RCH-ACV wild type WT cells (2C) (AID 1645877); conditions: activity change, negative = cell killing: at 44.9 µM (top of the series) unless noted; note: nearly all actives have a fitted effect of over 70% in size; for activity change, negative = cell killing: % is set by controls: 0 for no effect and ±100 for the full control effect
[10] = target: Phospholipid hydroperoxide glutathione peroxidase GPX4 (Homo sapiens) (UniProt P36969); experiment: Primary qHTS Assay for Inhibitors of Recombinant Selenoprotein Glutathione Peroxidase 4 (GPX4) (AID 1845192); conditions: activity change, negative = inhibition: at 50 µM (top of the series) unless noted; note: potency is the fitted concentration of half-maximal effect; nearly all actives have a fitted effect of over 65% in size
How it was run: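 Steps: GPX4 plus compound, 30 min RT; add GR/GSH/NADPH master mix; start with cumene hydroperoxide; read 340/450 nm fluorescence at 0 and 15 min. Finals were 200 nM GPX4, 1 mM GSH, 0.5 mM CHP, 0.5 mM NADPH, 100 nM GR.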

[11] = system: Nanoluciferase (engineered Oplophorus gracilirostris luciferase); experiment: Primary Nanoluciferase (NLuc) qHTS assay for identification of artifact compounds. (AID 1845222); note: potency is the fitted concentration of half-maximal effect;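 for activity, negative = inhibition: 0% = DMSO and -100% = no enzyme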
How it was run: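 Diluted conditioned medium from NLuc-expressing S16 cells treated with compounds for 15 min at room temperature, then Nano-Glo substrate added; luminescence read after 5 min. Percent inhibition versus no-enzyme and DMSO controls fitted to 4-parameter Hill equation.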

HaCat = experiment: Cytotoxic Profiling of Annotated Libraries Using Quantitative High-Throughput Screening (AID 1296008); conditions: Five cell lines viability, CellTiter-Glo ATP luminescence, 48-72 h; max response: active compounds read low; note: nearly all actives have a fitted effect of over 60% in size; note: potency is the fitted concentration of half-maximal effect; for max response: % is set by controls: 0 for no effect and ±100 for the full control effect
How it was run: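 Cells exposed to compounds for 48 or 72 hr at 37 degrees Celsius. Viability read as ATP-coupled luminescence with CellTiter-Glo after 10 min at room temperature.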

Tov112D = experiment: Primary qHTS to identify gynecologic anti-cancer compounds using libraries of approved drugs and bioactive compounds (AID 1345084); conditions: Gynecologic cancer cell panel viability, ATPlite luminescence, 48 h; series mostly up to 57.5 µM
How it was run: (§1)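 Cells, 1,000 per well, plated 16 h, then exposed 48 h at 37 C to compounds. Viability by ATPlite luminescence after 15 min at room temperature.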

[12] = S16 Schwann cell PMP22 intronic element beta-lactamase assay (AID 624044; calls by dose curve;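 note: 0% = DMSO and -100% = potassium clavulanate positive control; nearly all actives have a fitted effect of over 15% in size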); conditions: S16 rat Schwann cells, PMP22 element beta-lactamase FRET, 24 h; ratio activity, negative = inhibition: at 38.3 µM (top of the series) unless noted
How it was run: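 Beta-lactamase reporter under a PMP22 intronic regulatory element in stable S16 rat Schwann cells; 24 h compound exposure. 460 nm blue signal normalized between DMSO (0%) and potassium clavulanate, with 535 nm FRET tracking viability; curves classed by r2 and response.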

[13] = qHTS Assay for Identifying Gametocytocidal Compounds (AID 743244);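 note: % is set by controls: 0 for no effect and ±100 for the full control effect; actives lower the fluorescent signal which means gametocytes are killed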; conditions: P. falciparum 3D7 stage III-V gametocytes, alamarBlue, 72 h; max response: active compounds read low
How it was run: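 Stage III-V P. falciparum 3D7 gametocytes, 20,000 per well, were exposed to compounds for 72 h at 37C, 5% CO2. AlamarBlue was then added for 24 h and viability was read as fluorescence at Ex 525/Em 598 nm.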

[14] = qHTS of pediatric cancer cell lines to identify multiple opportunities for drug repurposing: Primary screen for BT-37 cells (AID 1347094);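 note: plate controls were DMSO for no effect and bortezomib for full effect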
How it was run: (§2)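 Primary screen of approved and investigational compounds on cells in growth media at 37 degrees C, 5% CO2. MIPE set at 11-point and NPC set at 8-point dilutions; viability scored by ATP-based luminescence at 48 hours.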

[15] = qHTS of pediatric cancer cell lines to identify multiple opportunities for drug repurposing: Primary screen for Saos-2 cells (AID 1347097); conditions: Saos-2 viability, CellTiter-Glo ATP luminescence, 48 h; activity change, negative = cytotoxic: at 46 µM (top of the series); note: potency is the fitted concentration of half-maximal effect; nearly all actives have a fitted effect of over 40% in size
How it was run: as §2

[16] = qHTS of pediatric cancer cell lines to identify multiple opportunities for drug repurposing: Primary screen for NB1643 cells (AID 1347099); conditions: NB1643 neuroblastoma viability, CellTiter-Glo luminescence, 48 h; activity change, negative = cytotoxic: at 46 µM (top of the series);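 note: plate controls were DMSO neutral control for no effect and bortezomib positive control for full effect; nearly all actives have a fitted effect of over 50% in size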
How it was run: as §2

[17] = qHTS of pediatric cancer cell lines to identify multiple opportunities for drug repurposing: Primary screen for OHS-50 cells (AID 1347103); conditions: OHS-50 osteosarcoma viability, CellTiter-Glo luminescence, 48 h; activity change, negative = cytotoxic: at 57.3 µM (top of the series); note: potency is the fitted concentration of half-maximal effect; nearly all actives have a fitted effect of over 40% in size
How it was run: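 Cells (500-1,000/well) rested 5 h, then received compounds for 48 h; metabolically active cells were measured by CellTiter-Glo luminescence. Final concentrations spanned up to 46 µM (MIPE, 11-point) or 0.59 nM-46 µM (NPC, 8-point) in primary screens, 11-point in follow-ups.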

[18] = qHTS to identify inhibitors of the type 1 interferon - major histocompatibility complex class I in skeletal muscle: primary screen against the NCATS Pharmaceutical Collection (AID 1347407);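 note: luminescence of HiBiT knocked into endogenous HLA-B as interferon-induced MHC class I level; % is set by controls: 0 for no effect and ±100 for the full control effect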
How it was run: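 Immortalized human myoblasts (C25cl48) with HiBiT knocked into endogenous HLA-B*08:01 were stimulated with 4 ng/ml IFN-beta and treated with compounds (8-point, 1:5, top 46 uM final) for 24 h at 37 C; HiBiT lytic luminescence read.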

CP260 = experiment: qHTS profiling for inhibitors of Plasmodium falciparum proliferation (AID 504749); note: potency is the fitted concentration of half-maximal effect; nearly all actives have a fitted effect of over 60% in size; conditions: P. falciparum in erythrocytes, SYBR Green DNA, 72 h; series mostly up to 28.7 µM
How it was run: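 Each compound contacts P. falciparum-infected red blood cells for 72 h at 37 C; lysis buffer (Tris, EDTA, saponin, Triton X, SYBR Green I) is added and fluorescence measured next morning; values normalized to controls.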

[19] = Primary fluorescence-based thiol-reactive (MSTI) qHTS assay for identification of artifact compounds. (AID 1845221);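 note: potency is the fitted concentration of half-maximal effect; thiol-reactive compounds lower the probe fluorescence signal; nearly all actives have a fitted effect of over 65% in size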
How it was run: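 MSTI probe at 4 uM final in 2% DMSO/PBS pH 7.4; compounds, 1 h at room temperature in dark. Fluorescence Ex/Em 525/598 nm, normalised to Acetyl-MSTI and MSTI, fitted to 4-parameter Hill.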

Tov-21-G = experiment: Primary qHTS to identify gynecologic anti-cancer compounds using libraries of approved drugs and bioactive compounds (AID 1345084); conditions: Gynecologic cancer cell panel viability, ATPlite luminescence, 48 h; series mostly up to 57.5 µM
How it was run: as §1
Tags give direction and shape of the fitted curve.

Chain of UniProt P10635 (P10635 whole entry, looked up): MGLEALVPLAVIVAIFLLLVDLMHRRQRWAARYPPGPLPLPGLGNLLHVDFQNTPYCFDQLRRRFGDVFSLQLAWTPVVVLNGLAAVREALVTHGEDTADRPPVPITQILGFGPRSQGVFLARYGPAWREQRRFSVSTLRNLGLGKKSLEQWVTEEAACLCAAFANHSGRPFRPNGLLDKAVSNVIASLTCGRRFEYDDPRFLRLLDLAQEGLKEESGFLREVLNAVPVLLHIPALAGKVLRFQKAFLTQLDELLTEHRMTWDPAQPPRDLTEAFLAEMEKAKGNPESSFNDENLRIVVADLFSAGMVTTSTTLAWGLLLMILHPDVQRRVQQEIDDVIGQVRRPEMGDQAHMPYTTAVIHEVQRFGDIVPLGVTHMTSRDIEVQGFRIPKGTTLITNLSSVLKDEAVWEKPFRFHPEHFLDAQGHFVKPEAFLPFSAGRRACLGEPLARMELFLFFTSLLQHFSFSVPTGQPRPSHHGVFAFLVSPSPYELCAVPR
Chain of UniProt P36969 (P36969 whole entry, looked up): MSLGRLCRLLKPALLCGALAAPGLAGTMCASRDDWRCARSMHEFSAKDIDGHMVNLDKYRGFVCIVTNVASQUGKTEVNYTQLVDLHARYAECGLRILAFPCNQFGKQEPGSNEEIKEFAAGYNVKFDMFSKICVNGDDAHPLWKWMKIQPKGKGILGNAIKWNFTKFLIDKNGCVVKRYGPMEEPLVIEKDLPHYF
Chain of UniProt Q99828 (Q99828 whole entry, looked up): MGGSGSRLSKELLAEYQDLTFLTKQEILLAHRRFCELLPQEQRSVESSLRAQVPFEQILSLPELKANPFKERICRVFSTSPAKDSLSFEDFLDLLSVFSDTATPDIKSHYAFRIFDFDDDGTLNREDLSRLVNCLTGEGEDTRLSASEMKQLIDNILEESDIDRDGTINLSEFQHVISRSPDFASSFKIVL
Chain of UniProt P09958 (P09958 whole entry, looked up): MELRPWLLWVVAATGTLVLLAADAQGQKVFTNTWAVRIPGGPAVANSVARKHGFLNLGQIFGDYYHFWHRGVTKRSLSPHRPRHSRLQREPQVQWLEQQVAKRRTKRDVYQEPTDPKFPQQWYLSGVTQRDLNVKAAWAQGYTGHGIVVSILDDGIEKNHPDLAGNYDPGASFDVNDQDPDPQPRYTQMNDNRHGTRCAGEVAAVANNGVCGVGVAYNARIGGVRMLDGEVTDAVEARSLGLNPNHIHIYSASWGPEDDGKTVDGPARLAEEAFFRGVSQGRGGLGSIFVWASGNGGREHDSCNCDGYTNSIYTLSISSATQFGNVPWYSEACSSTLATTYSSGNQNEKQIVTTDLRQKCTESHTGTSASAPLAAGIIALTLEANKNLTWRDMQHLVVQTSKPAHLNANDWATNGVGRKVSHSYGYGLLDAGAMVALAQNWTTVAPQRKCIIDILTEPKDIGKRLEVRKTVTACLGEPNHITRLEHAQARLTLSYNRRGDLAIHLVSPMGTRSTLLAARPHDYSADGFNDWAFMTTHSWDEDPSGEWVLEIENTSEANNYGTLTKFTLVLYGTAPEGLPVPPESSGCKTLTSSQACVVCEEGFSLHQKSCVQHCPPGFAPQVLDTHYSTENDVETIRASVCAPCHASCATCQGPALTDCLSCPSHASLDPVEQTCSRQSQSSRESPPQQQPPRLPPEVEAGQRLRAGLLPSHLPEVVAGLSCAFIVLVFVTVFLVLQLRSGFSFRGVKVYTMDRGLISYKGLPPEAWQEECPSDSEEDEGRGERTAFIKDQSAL
Chain of UniProt P11712 (P11712 whole entry, looked up): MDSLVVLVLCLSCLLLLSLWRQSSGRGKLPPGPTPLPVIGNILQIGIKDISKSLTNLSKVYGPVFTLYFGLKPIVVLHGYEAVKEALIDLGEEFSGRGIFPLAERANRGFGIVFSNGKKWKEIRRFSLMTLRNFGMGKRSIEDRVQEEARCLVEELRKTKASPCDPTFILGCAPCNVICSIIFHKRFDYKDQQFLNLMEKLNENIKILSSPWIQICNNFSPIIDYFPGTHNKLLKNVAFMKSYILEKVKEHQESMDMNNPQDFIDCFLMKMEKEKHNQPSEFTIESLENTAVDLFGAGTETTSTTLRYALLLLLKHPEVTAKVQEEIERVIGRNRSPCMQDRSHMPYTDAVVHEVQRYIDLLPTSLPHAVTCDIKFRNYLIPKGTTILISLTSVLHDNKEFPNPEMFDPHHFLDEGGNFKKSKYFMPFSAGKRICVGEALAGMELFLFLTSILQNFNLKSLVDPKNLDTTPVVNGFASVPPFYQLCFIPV

In the case of `CCc1c(-c2ccccc2)c(-c2ccccc2)nn1-c1ccccc1-c1cccc(OCC(=O)O)c1`, the Potency [1] is reported as “inactive”, the Potency (Furin (Homo sapiens)) is reported as active: 30.4 µM and the Potency [2] is reported as inconclusive: 35.5 µM [inhibitor, partial curve]. For the same compound, the Potency [3] was active: 6.31 µM, the Potency [4] was active: 3.55 µM and the Potency [5] was inconclusive: 18.6 µM [inhibitor, single point]. For the same compound, the Potency [6] was inconclusive: 56.2 µM [inhibitor, partial curve, poor fit], the Potency [7] was inconclusive: 37.9 µM [inhibitor, single point] and the Potency [8] was inconclusive: 37.9 µM [inhibitor, single point]. For the same compound, the Potency [9] was “inactive”, the Potency [10] was inconclusive: 22.7 µM [inhibitor, partial curve, poor fit] and the Potency [11] was active: 0.269 µM. The max response (HaCat) was inactive: -10.2%.

In the case of `CC1OC(O[C@H]2CC[C@@]3(C)C(CC[C@]4(C)C3CC=C3C5CC(C)(C)CC[C@]5(C(=O)OC5OC(CO)C(OC6OC(COC7OCC(O)C(O)C7O)C(O)C(O)C6O)C(O)C5O)CC[C@]34C)C2(C)C)C(O)C(O)C1OC1OCC(OC2OCC(O)C(O)C2O)C(O)C1O` (some centres undefined), the Potency [3] is reported as inconclusive: 12.6 µM [inhibitor, single point], the activity change, negative = cell killing [9] is reported as inactive: 2.24% [at 9.23 µM] and the activity, negative = inhibition [11] is reported as inactive: 0% [at 11.6 µM]. For the same compound, the Potency (HaCat) was inconclusive: 6.16 µM [inhibitor, single point] and the activity change, negative = cytotoxicity (Tov112D) was inactive: -13.2% [at 6.55 µM].

For `N=C(N)N1CCc2ccccc2C1`, the ratio activity, negative = inhibition [12] was inconclusive: 2.99%, the max response [13] was inactive: 4.79% and the Potency [1] was “inactive”. For the same compound, the activity change, negative = cytotoxic [14] was inactive: -4.38% [at 6.03 µM], the Potency [15] was inconclusive: 2.66 µM [cytotoxic, single point] and the activity change, negative = cytotoxic [16] was inactive: -5.24% [at 4.84 µM]. For the same compound, the Potency [17] was inconclusive: 1.55 µM [cytotoxic, partial curve, poor fit], the activity change, negative = inhibition [18] was inactive: -4.74% [at 3.83 µM] and the Potency (HaCat) was inconclusive: 0.531 µM [inhibitor, single point]. For the same compound, the Potency (CP260) was inconclusive: 12.6 µM [inhibitor, single point].

For `C[C@@H]1CN(Cc2ccccc2)C[C@H]1c1nc2c(cnn2C2CCOCC2)c(=O)[nH]1`, the Potency [1] was “inactive”, the Potency [7] was “inactive” and the Potency (HaCat) was inconclusive: 29.1 µM [inhibitor, single point].

For `CC1C(=O)CC2C3CCC(C(=O)O)C12CC3(C)CO` (centres undefined), the Potency [19] was inconclusive: 10.6 µM [inhibitor, partial curve], the Potency (HaCat) was inconclusive: 0.0259 µM [inhibitor, full curve] and the Potency (Tov-21-G) was “inactive”.
